Data taken from PubChem BioAssay AID1346428 (National Center for Advancing Translational Sciences (NCATS), 2018).
Out of some 48,000 compounds screened, about 1,200 (2.5%) were called active. Not shown: some 2% with an inconclusive outcome.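 The calls were made as follows: active = activation of at least 60% and not above a set upper limit (about 1 call in 100 departs from these limits); inconclusive = activation of 40% to 60%, or above that upper limit; inactive = activation under 40%.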 This is one part of the list.

What follows are compounds tested against Probable G-protein coupled receptor 32 (Homo sapiens) (UniProt O75388) (assay: qHTS for Agonists of Human Resolvin D1 Receptor DRV1). Settings: CHO-K1 GPR32 beta-arrestin PathHunter luminescence, 90 min; at 76.9 µM; active compounds read high; zero percent set by DMSO-only wells.
Procedure, shortened: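 GPR32 activation in stably transfected CHO-K1 cells, detected as beta-arrestin recruitment by enzyme-fragment complementation. Compound exposure: 90 min, 37 °C.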
Also: 0% is about no effect.

Chain of UniProt O75388 (O75388 whole entry, looked up, the tested form may be a part): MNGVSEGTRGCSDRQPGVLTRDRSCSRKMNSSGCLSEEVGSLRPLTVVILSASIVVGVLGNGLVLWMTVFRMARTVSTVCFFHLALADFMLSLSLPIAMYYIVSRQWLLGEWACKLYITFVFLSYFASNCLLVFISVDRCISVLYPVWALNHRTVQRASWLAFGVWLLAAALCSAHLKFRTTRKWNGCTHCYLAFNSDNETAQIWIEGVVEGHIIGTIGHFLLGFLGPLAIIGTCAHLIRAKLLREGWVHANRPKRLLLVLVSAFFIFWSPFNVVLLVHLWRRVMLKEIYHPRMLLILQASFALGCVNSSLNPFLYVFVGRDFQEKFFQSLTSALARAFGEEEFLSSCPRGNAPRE

Q: `CCOc1ccc(N(CC(=O)NCc2ccc(Cl)cc2)S(=O)(=O)c2c(C)noc2C)cc1` was tested. Which activation did it give?
A: Its activation is inactive: -8.33%.

Q: Which activation does the source give for `COCCCNC(=O)C1CCC(Cn2c(=O)c3sccc3n(Cc3ccc(F)cc3)c2=O)CC1` (centres undefined) here?
A: Its activation is inactive: -1.57%.

Q: How did the activation turn out when `Cc1cc(NC(=O)Nc2csc3c2CCCC3)ccc1Br` was run?
A: Its activation is inactive: -1.37%.

Q: `Cc1c(NC(=O)c2ccc(N3CCC(C)CC3)c([N+](=O)[O-])c2)cccc1-c1nc2ccccc2o1` was tested. Which activation did it give?
A: The activation was inactive: -14.8%.

Q: With `Cc1ccc(C(=O)Nc2ccc(OCc3cc(=O)n4c5c(sc4n3)CCCC5)cc2)cc1` as the compound, how does the activation read?
A: Its activation is inactive: 6.03%.

Q: For `Cc1cccc(N2CCN(C(=O)c3oc(=O)c4ccccc4c3-c3ccccc3)CC2)c1C`, which activation is on record?
A: Its activation is inactive: -1.3%.

Q: For `COc1ccc(-c2nc3scc(CCNS(=O)(=O)c4ccc(NC(C)=O)cc4)n3n2)cc1`, which activation is on record?
A: Its activation is inactive: 9.76%.

Q: Which activation does the source give for `CCN(CC)CCNC(=O)c1c(C)[nH]c(/C=C2\C(=O)Nc3ccc(F)cc32)c1C` here?
A: Its activation is inactive: -4.86%.

Q: For `COc1cc2nc(SCC(=O)Nc3ccccc3F)n3nc(-c4ccccc4)nc3c2cc1OC`, which activation is on record?
A: The activation was inactive: 17.7%.

Q: How did the activation turn out when `CCOC(=O)c1ccc(NC2SC(=O)N(Cc3cccc(C(=O)O)c3)C2=O)cc1` (centres undefined) was run?
A: The activation was inactive: -71%.

Q: Which activation does the source give for `CCc1ccc(NC(=O)CSc2nc3c(sc4ccccc43)c(=O)n2CCCOC(C)C)cc1` here?
A: Its activation is inactive: -4.39%.

Q: `CCOc1ccc(Cn2c(CNS(=O)(=O)c3cccc(Cl)c3)nc3cccnc32)cc1` was tested. Which activation did it give?
A: The activation was inactive: -7.09%.

Q: Which activation does the source give for `COc1ccc(-c2nc3ccc(NS(=O)(=O)c4ccc(Cl)cc4)cc3o2)cc1` here?
A: The activation was active: 79.5%.

Q: Which activation does the source give for `Cc1ccc(CNC(=O)c2ccc(CSCc3ccccc3C)o2)cc1` here?
A: Its activation is inactive: -27.3%.

Q: With `COc1ccccc1C(=O)N1CCN(Cc2cc(=O)oc3cc(C)ccc23)CC1` as the compound, how does the activation read?
A: Its activation is inactive: -6.1%.

Q: How did the activation turn out when `COc1ccc(-n2cc(C(=O)NCc3ccccc3Cl)c3ccccc3c2=O)cc1` was run?
A: The activation was inactive: -19.5%.

Q: With `CCCCN(CC)C(=O)Cn1ncc2c3ccccc3n(CCC)c2c1=O` as the compound, how does the activation read?
A: Its activation is inactive: -14.3%.

Q: For `COc1ccccc1NC(=O)CSC1=Nc2ccccc2C2=NC(CCC(=O)NCc3cccs3)C(=O)N12` (centres undefined), which activation is on record?
A: Its activation is inactive: -32.3%.

Q: How did the activation turn out when `CCOc1cccc(C(=O)N(Cc2ccc(CC)cc2)C2CCS(=O)(=O)C2)c1` (centres undefined) was run?
A: The activation was inactive: -7.21%.

Q: With `CCCNC(=O)Cn1nc(-c2ccc(F)cc2)c2cnc3ccc(F)cc3c21` as the compound, how does the activation read?
A: The activation was inactive: 7.42%.

Q: How did the activation turn out when `COc1ccc(/C=C/C(=O)Nc2ccccc2C(=O)O)cc1OC` was run?
A: The activation was inactive: 7.33%.

Q: `Cn1c(=O)[nH]c2cc(-c3noc(-c4cccc(Cl)c4)n3)ccc21` was tested. Which activation did it give?
A: Its activation is inactive: -7.93%.

Q: How did the activation turn out when `CCC(C)NC(=O)c1cccc(NC(=O)c2nsc3ccccc23)c1` (centres undefined) was run?
A: Its activation is inactive: -9.44%.

Q: `CCCCCCOc1ccc(C2C(=O)N(C3CCCCC3)CC(=O)N2CCCC)cc1` (centres undefined) was tested. Which activation did it give?
A: The activation was inactive: -22.7%.

Q: Which activation does the source give for `CCOc1cccc(C(=O)Nc2cc(-c3ccc(C)cc3)no2)c1` here?
A: The activation was inactive: 27.3%.

Q: How did the activation turn out when `O=C(CN1C(=O)CCc2cc(S(=O)(=O)N3CCOCC3)ccc21)Nc1cccc(C(F)(F)F)c1` was run?
A: The activation was inactive: -12%.

Q: With `Cc1ccc2c(=O)cc(C(=O)Nc3sc4c(c3C(=O)NCc3ccccc3)CCCC4)oc2c1C` as the compound, how does the activation read?
A: Its activation is inactive: 12.2%.

Q: `CN(C)c1ccc(CNC(=O)CCS(=O)(=O)c2ccc3c(c2)oc(=O)n3C)cc1` was tested. Which activation did it give?
A: Its activation is inactive: -5.4%.

Q: For `CCCCN1C(C(=O)c2ccccc2)=C(OC(C)=O)c2ccccc2S1(=O)=O`, which activation is on record?
A: The activation was inactive: -57.9%.

Q: For `Cc1noc(Cn2c(=O)c3cc4c(cc3n(CC(=O)Nc3ccccc3Br)c2=O)OCO4)n1`, which activation is on record?
A: The activation was inactive: -18%.

Q: `O=C(Nc1sc2c(c1C(=O)N1CCCCC1)CCCC2)c1ccccc1Cl` was tested. Which activation did it give?
A: Its activation is inactive: -17.8%.

Q: `COc1ccc(NC(=O)CNC(=O)Cn2c(C)cc3ccccc3c2=O)cc1OC` was tested. Which activation did it give?
A: Its activation is inactive: 36.1%.

Q: `Cc1ccccc1CNC(=O)CN(c1cccc(C)c1C)S(C)(=O)=O` was tested. Which activation did it give?
A: The activation was inactive: -7.58%.

Q: How did the activation turn out when `CCCCN(CCCC)C1=C(C(=O)c2ccccc2)N(C)S(=O)(=O)c2ccccc21` was run?
A: Its activation is inactive: -96.3%.

Q: Which activation does the source give for `CCCS(=O)(=O)N1CCCC(C(=O)NCCOC)C1` (centres undefined) here?
A: The activation was inactive: -7.06%.

Q: With `CCOc1ccc(NCc2cccn2-c2nnc(N3CCC(C(=O)NCCOC)CC3)s2)cc1` as the compound, how does the activation read?
A: Its activation is inactive: -26.8%.

Q: How did the activation turn out when `C=C(C)Cn1c(=O)c2c(nc3n2CCN3c2ccc(F)cc2)n(C)c1=O` was run?
A: The activation was inactive: -8.27%.

Q: `Cc1ccccc1Nc1cc(C(=O)NCc2cccs2)c2ccccc2n1` was tested. Which activation did it give?
A: Its activation is inactive: -6.83%.

Q: For `CCOc1ccc(-c2nc(Cn3ccn4nc(-c5ccc(OCC)c(Cl)c5)cc4c3=O)c(C)o2)cc1`, which activation is on record?
A: The activation was inactive: -0.955%.

Q: How did the activation turn out when `COc1ccccc1/C=C/c1nc(C#N)c(NCCc2ccccc2)o1` was run?
A: The activation was inactive: -22.8%.

Q: How did the activation turn out when `COc1ccc(CNS(=O)(=O)c2ccc(-c3cnc(C4CC4)o3)cc2)cc1` was run?
A: Its activation is inactive: -11.7%.

Q: For `CCOc1ccc(N(CC)S(=O)(=O)N2CCCC(C(=O)Nc3cc(Cl)ccc3OC)C2)cc1` (centres undefined), which activation is on record?
A: The activation was inactive: -11.7%.

Q: With `Cc1cccc(OCCn2c(SCC(=O)O)nc3ccccc32)c1` as the compound, how does the activation read?
A: The activation was inactive: 39.6%.

Q: How did the activation turn out when `COc1ccc(C)cc1N(C)C(=O)c1c2c(nc3ccccc13)C(=O)N(C1CCCCC1)C2` was run?
A: Its activation is inactive: -9.64%.

Q: With `COc1ccc(Nc2ncc(C(=O)N3CCN(c4ccc(F)cc4)CC3)c3ccccc23)cc1` as the compound, how does the activation read?
A: Its activation is inactive: -7.04%.

Q: For `CCOc1ccc(CNS(=O)(=O)c2ccc(-c3coc(C)n3)cc2)cc1`, which activation is on record?
A: Its activation is inactive: -11.5%.

Q: Which activation does the source give for `COc1ccc(N2CCN(CCCNC(=O)Cn3c(-c4cccs4)cc4ccccc43)CC2)cc1` here?
A: The activation was inactive: -16.5%.

Q: `CC1(C)C(=O)N(CC(=O)Nc2ccc(Br)cc2F)c2ccccc21` was tested. Which activation did it give?
A: Its activation is inactive: 48.7%.

Q: With `COc1ccc2nc(N(Cc3cccnc3)C(=O)C3CCCCC3)sc2c1` as the compound, how does the activation read?
A: The activation was inactive: -23.3%.

Q: `COc1cccc(C2C(C(=O)Nc3ccc(C)cc3C)=C(C)Nc3nc4ccccc4n32)c1OC` (centres undefined) was tested. Which activation did it give?
A: The activation was inactive: -13%.

Q: For `CCOC(=O)c1cc(S(=O)(=O)N2CCN(c3ccccc3F)CC2)[nH]n1`, which activation is on record?
A: Its activation is inactive: -4.78%.

Q: With `Cc1nc2ccc(S(=O)(=O)N(C)CC(=O)Nc3cccc(C(F)(F)F)c3)cc2s1` as the compound, how does the activation read?
A: Its activation is inactive: 10.1%.

Q: For `CCCCN(CC)CCCNC(=O)Nc1sc2nc3n(c(=O)c2c1C)CCC(C)CC3` (centres undefined), which activation is on record?
A: The activation was inactive: -3.68%.

Q: With `CC(NC(=O)C1CCN(c2nc3ccccc3nc2C(F)(F)F)CC1)c1ccccc1` (centres undefined) as the compound, how does the activation read?
A: The activation was inactive: 4.49%.
